# Data: PubChem BioAssay AID687022 (Broad Institute, 2013)
# In all, about 1,000 compounds went through this assay and about 360 (36%) were called active.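 How the source made its calls: active means Fitted curve of melting temperature shift crosses the 1.0 threshold at or below the sample's highest valid tested concentration; inconclusive means Flat fit with activity 30 to 70, or invalid fit; inactive means Opposite direction, flat within 30, or no crossing.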 Most of the strongest results are missing from this list.
# Molecular target: Fibroblast growth factor 22 (Homo sapiens) (UniProt Q9HCT0)
# Sequence of UniProt Q9HCT0 (Q9HCT0 whole entry, looked up): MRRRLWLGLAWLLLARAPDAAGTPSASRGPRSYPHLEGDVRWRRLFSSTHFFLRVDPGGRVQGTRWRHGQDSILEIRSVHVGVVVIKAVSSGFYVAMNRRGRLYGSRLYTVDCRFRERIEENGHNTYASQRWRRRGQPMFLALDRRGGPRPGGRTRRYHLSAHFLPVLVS
# Assay: FGF22 ligand-induced thermal stabilization – biophysical, thermal shift, cherry-pick, FGF22 synaptogenesis inhibitor project, dose response (AID 687022); further: reference of the scale not given here
# Conditions: recombinant FGF22 thermal shift, SYPRO orange melting; at 38 µM (top of the series) unless noted
row,Compound,Tm shift activity
1,O=C(O/N=C1\CCCc2ccccc21)C1CC1,inactive: -0.196%
2,C[C@@H]1CN([C@H](C)CO)C(=O)c2cc(NC(=O)Cc3cn(C)c4ccccc34)ccc2O[C@@H]1CN(C)S(=O)(=O)c1ccccc1,inactive: 0.402%
3,Cc1ccccc1C(=O)NCC(=O)OC(C)C(=O)Nc1cccc(S(=O)(=O)N2CCOCC2)c1 (centres undefined),inactive: -2.68%
4,COC(=O)C[C@@H]1CC[C@H]2[C@@H](COc3ccc(NC(=O)NC(C)C)cc3C(=O)N2C)O1,inactive: 0.058%
5,COc1ccc(CN(C)C[C@@H]2Oc3ccc(NC(=O)NC(C)C)cc3C(=O)N([C@H](C)CO)C[C@@H]2C)cc1,inactive: 0% [at 42 µM]
6,CC(C)NC(=O)Nc1ccc2c(c1)C(=O)N([C@H](C)CO)C[C@H](C)[C@@H](CN(C)C(=O)NC(C)C)O2,inactive: 0.003%
7,CCCC(=O)Nc1ccc(C(=O)Nc2ccc([N+](=O)[O-])cc2OC)cc1,inactive: 0.142%
8,C[C@H](CO)N1C[C@H](C)[C@@H](CN(C)C(=O)OCc2ccccc2)OCc2cn(nn2)CCCC1=O,inactive: 0.212%
9,O=C(NCC[C@H]1CC[C@@H](NC(=O)C2CCOCC2)[C@@H](CO)O1)Nc1ccc(Cl)cc1,inactive: 0.267% [at 42 µM]
10,CNC[C@H]1OCCCC[C@@H](C)Oc2ccc(NC(=O)Nc3ccc(C(F)(F)F)cc3)cc2C(=O)N([C@H](C)CO)C[C@@H]1C,inactive: -0.635% [at 42 µM]
11,COc1ccc(NC(=O)N(C)C[C@@H]2Oc3ccc(NS(C)(=O)=O)cc3CC(=O)N([C@@H](C)CO)C[C@H]2C)cc1,inactive: -0.142% [at 42 µM]
12,O=C(c1ccccc1)N1CC(=O)N2[C@H](C1)[C@@H](c1ccc(C#CC3CC3)cc1)[C@@H]2CO,inactive: -0.399% [at 42 µM]
13,CCc1ccc(C(=O)NNC(=O)c2cccc(N3C(=O)CCC3=O)c2)cc1,inactive: 0.024%
14,O=C(O)CCN(Cc1ccccc1)S(=O)(=O)c1ccccc1Cl,inactive: -0.042%
15,O=C(C1CC1)N1CC2(C1)[C@H](c1ccccc1)[C@@H](CO)N2Cc1ccc(Cl)cc1,inactive: -0.221% [at 42 µM]
16,COCC(=O)N1CC(=O)N2[C@H](CO)[C@H](c3ccc(Br)cc3)[C@H]2C1,inactive: -0.099%
17,O=C(C[C@H]1CC[C@@H]2[C@H](COC[C@H](O)CN2Cc2cc(F)ccc2F)O1)NCc1ccc(F)cc1,inactive: -0.438% [at 42 µM]
18,CCc1ccc(C(=O)NCc2cnn(C)c2)s1,inactive: -0.042%
19,O=C(CC1CC1)N1CC2(C1)[C@H](c1ccccc1)[C@H](CO)N2C(=O)c1cnccn1,inactive: -0.016% [at 42 µM]
